Among the data in the antibiotic and cytotoxicity screens of Wong et al. (2023) are cytotoxicity call values, retold here.

Some of the results follow.

One test has as its system HSkMC (human skeletal muscle cells). In words: cytotoxicity call (relative viability < 0.9). As to conditions: 10 µM.
Turning to `C[C@]12CC[C@@H]3c4ccc(OC(=O)N(CCCl)CCCl)cc4CC[C@H]3[C@@H]1CC[C@@H]2OP(=O)(O)O`, the cytotoxicity call was “inactive”.

Turning to `CN1C(=O)NC(=O)/C(=C\C=C\c2ccco2)C1=O`, the cytotoxicity call is “inactive”.

On to `C[C@H]1O[C@H](n2cnc3c(N)ncnc32)C[C@@H]1O`, for which the cytotoxicity call was “inactive”.

As to `C[C@H]1CN([C@@H](C)CO)C(=O)c2c(c3ccccc3n2C)-c2ccccc2CO[C@@H]1CN(C)C(=O)Oc1ccccc1`, the cytotoxicity call was “inactive”.

`CO[C@H]1[C@@H](O)[C@@H](C)O[C@H](O[C@H]2CC[C@@]3(C)[C@H]4CC[C@@]5(C)[C@@H](C6=CC(=O)OC6)CC[C@]5(O)[C@@H]4CC[C@]3(O)C2)[C@@H]1O`: the cytotoxicity call was “inactive”.

As for `C1CCc2nnnn2CC1`, the cytotoxicity call is “inactive”.

Take `COC(=O)[C@H]1[C@H](CO)[C@H]2Cn3c(ccc(C4=CCCC4)c3=O)[C@@H]1N2S(=O)(=O)c1cn(C)cn1`: the cytotoxicity call was “inactive”.

Turning to `Clc1ccc(C(c2ccc(Cl)cc2)C(Cl)(Cl)Cl)cc1`, the cytotoxicity call is “inactive”.

In the case of `C[C@H](O)[C@@]12[C@H]3CC=C[C@@H]1N2CC3` (stereo partly drawn), the cytotoxicity call is “inactive”.

In the case of `Cc1nn[nH]n1`, the cytotoxicity call was “inactive”.

On to `C[C@H]1CN([C@@H](C)CO)C(=O)CCCn2cc(nn2)CO[C@@H]1CN(C)C(=O)Oc1ccc2ccccc2c1`, for which the cytotoxicity call is “inactive”.

In the case of `Oc1cc2c(cc1O)CNCC2`, the cytotoxicity call is “inactive”.

Take `C=CCN=C=S`: the cytotoxicity call was “inactive”.

For `C=C(CCCCCCCCCCCCCCCC)OOC[C@@H](COP(=O)(ON)O[C@@H]1[C@H](O)[C@H](O)[C@@H](OP(=O)(O)ON)[C@H](OP(=O)(O)ON)[C@H]1O)OOC(=C)CC/C=C/C/C=C/C/C=C/C/C=C/CCCCC` (stereo partly drawn), the cytotoxicity call is “inactive”.

Take `Cc1o[nH]c(=O)c1C[C@H](N)C(=O)O`: the cytotoxicity call is “inactive”.

In the case of `NC1(c2ccccc2F)CCCC1`, the cytotoxicity call is “inactive”.

For the compound `N#CC[N+]12CCN(CC1)CC2`, the cytotoxicity call was “inactive”.

Regarding `C=C(C)C1Cc2c(ccc3c(=O)c4c(oc23)COc2cc(OC)c(OC)cc2-4)O1` (stereo not drawn), the cytotoxicity call was “inactive”.

Consider `O=C1C[C@H](c2ccccc2)[C@@H]2CNCCN12`, for which the cytotoxicity call is “inactive”.

On to `CC(C)[C@@]1(NC(=O)[C@@H]2C[C@@H]3c4cccc5[nH]cc(c45)C[C@H]3N(C)C2)O[C@@]2(O)[C@@H]3CCCN3C(=O)[C@H](Cc3ccccc3)N2C1=O`, for which the cytotoxicity call was “inactive”.

With `O=C1C[C@@H](CO)CN1`, the cytotoxicity call is “inactive”.

For `CC(C)Oc1ccccc1CCN`, the cytotoxicity call was “inactive”.

Take `NC1=NC(=O)N2C[C@@H]12`: the cytotoxicity call is “inactive”.

For `CC12CCC(O)CC1CCC1C2CC(O)C2(C)C(C3=CC(=O)OC3)CCC12O` (stereo not drawn), the cytotoxicity call is “active”.

For `Cn1cc(N2C[C@@H]3CN(CCO)C[C@@H]3C2=O)cn1`, the cytotoxicity call is “inactive”.

As to `CCCCCCCCCc1ccc(O)cc1`, the cytotoxicity call was “active”.

As for `N#Cc1cnccn1`, the cytotoxicity call was “inactive”.

In the case of `C[C@@H]1CC[C@@]2(OC1)O[C@H]1C[C@H]3[C@@H]4CC=C5C[C@@H](O[C@@H]6O[C@H](CO)[C@@H](O[C@@H]7O[C@@H](C)[C@H](O)[C@@H](O)[C@H]7O)[C@H](O)[C@H]6O[C@@H]6O[C@@H](C)[C@H](O)[C@@H](O)[C@H]6O)CC[C@]5(C)[C@H]4CC[C@]3(C)[C@H]1[C@@H]2C`, the cytotoxicity call is “active”.

Consider `Cl.NCC(=O)c1ccccc1`, for which the cytotoxicity call was “inactive”.

`C[C@@H]1CN([C@H](C)CO)C(=O)CCCn2nncc2CO[C@@H]1CN(C)C(=O)Oc1cccc2ccccc12`: the cytotoxicity call was “inactive”.

`O=c1[nH]oc2c1CCNC2`: the cytotoxicity call is “inactive”.

In the case of `CN1CC[C@]2(CCCO2)C1`, the cytotoxicity call is “inactive”.

`O=C(O)C[C@@H]1CC[C@H]2NC[C@H](O)COC[C@@H]2O1`: the cytotoxicity call was “inactive”.

For `COc1ccc(C(=O)N2CCCC2=O)cc1`, the cytotoxicity call was “inactive”.

As for `NC[C@@H]1CCCN2CCCC[C@H]12`, the cytotoxicity call was “inactive”.

Turning to `COC(=O)C[C@H]1CC[C@@H]2NC[C@H](O)COC[C@H]2O1`, the cytotoxicity call was “inactive”.

Consider `CN(C)C(=O)Oc1ccc[n+](C)c1`, for which the cytotoxicity call was “inactive”.

On to `COC(=O)C(c1ccccc1)C1CCCCN1.Cl` (stereo not drawn), for which the cytotoxicity call is “inactive”.

With `CC(=O)OC1C2CCC3C(C)(O)C4CC(O)C(C)(C)C4(O)C(O)CC13CC2(C)O` (stereo not drawn), the cytotoxicity call is “inactive”.

The test system of another test is HepG2. The test is described as follows: cytotoxicity call (relative viability < 0.9). As to conditions: 10 µM.
For `C[C@]12CC[C@@H]3c4ccc(OC(=O)N(CCCl)CCCl)cc4CC[C@H]3[C@@H]1CC[C@@H]2OP(=O)(O)O`, the cytotoxicity call is “inactive”.

As to `CN1C(=O)NC(=O)/C(=C\C=C\c2ccco2)C1=O`, the cytotoxicity call was “inactive”.

Regarding `C[C@H]1O[C@H](n2cnc3c(N)ncnc32)C[C@@H]1O`, the cytotoxicity call was “inactive”.

In the case of `C[C@H]1CN([C@@H](C)CO)C(=O)c2c(c3ccccc3n2C)-c2ccccc2CO[C@@H]1CN(C)C(=O)Oc1ccccc1`, the cytotoxicity call was “inactive”.

As for `CO[C@H]1[C@@H](O)[C@@H](C)O[C@H](O[C@H]2CC[C@@]3(C)[C@H]4CC[C@@]5(C)[C@@H](C6=CC(=O)OC6)CC[C@]5(O)[C@@H]4CC[C@]3(O)C2)[C@@H]1O`, the cytotoxicity call was “inactive”.

As for `C1CCc2nnnn2CC1`, the cytotoxicity call was “inactive”.

Regarding `COC(=O)[C@H]1[C@H](CO)[C@H]2Cn3c(ccc(C4=CCCC4)c3=O)[C@@H]1N2S(=O)(=O)c1cn(C)cn1`, the cytotoxicity call is “inactive”.

In the case of `Clc1ccc(C(c2ccc(Cl)cc2)C(Cl)(Cl)Cl)cc1`, the cytotoxicity call was “inactive”.

As for `C[C@H](O)[C@@]12[C@H]3CC=C[C@@H]1N2CC3` (stereo partly drawn), the cytotoxicity call was “inactive”.

As to `Cc1nn[nH]n1`, the cytotoxicity call was “inactive”.

Take `C[C@H]1CN([C@@H](C)CO)C(=O)CCCn2cc(nn2)CO[C@@H]1CN(C)C(=O)Oc1ccc2ccccc2c1`: the cytotoxicity call was “inactive”.

As for `Oc1cc2c(cc1O)CNCC2`, the cytotoxicity call was “inactive”.

Consider `C=CCN=C=S`, for which the cytotoxicity call is “active”.

As to `C=C(CCCCCCCCCCCCCCCC)OOC[C@@H](COP(=O)(ON)O[C@@H]1[C@H](O)[C@H](O)[C@@H](OP(=O)(O)ON)[C@H](OP(=O)(O)ON)[C@H]1O)OOC(=C)CC/C=C/C/C=C/C/C=C/C/C=C/CCCCC` (stereo partly drawn), the cytotoxicity call was “active”.

Consider `Cc1o[nH]c(=O)c1C[C@H](N)C(=O)O`, for which the cytotoxicity call is “inactive”.

As to `NC1(c2ccccc2F)CCCC1`, the cytotoxicity call is “inactive”.

Consider `N#CC[N+]12CCN(CC1)CC2`, for which the cytotoxicity call is “inactive”.

With `C=C(C)C1Cc2c(ccc3c(=O)c4c(oc23)COc2cc(OC)c(OC)cc2-4)O1` (stereo not drawn), the cytotoxicity call was “inactive”.

As for `O=C1C[C@H](c2ccccc2)[C@@H]2CNCCN12`, the cytotoxicity call was “inactive”.

In the case of `CC(C)[C@@]1(NC(=O)[C@@H]2C[C@@H]3c4cccc5[nH]cc(c45)C[C@H]3N(C)C2)O[C@@]2(O)[C@@H]3CCCN3C(=O)[C@H](Cc3ccccc3)N2C1=O`, the cytotoxicity call was “inactive”.

On to `O=C1C[C@@H](CO)CN1`, for which the cytotoxicity call is “inactive”.

Turning to `CC(C)Oc1ccccc1CCN`, the cytotoxicity call is “inactive”.

On to `NC1=NC(=O)N2C[C@@H]12`, for which the cytotoxicity call is “inactive”.

As to `CC12CCC(O)CC1CCC1C2CC(O)C2(C)C(C3=CC(=O)OC3)CCC12O` (stereo not drawn), the cytotoxicity call is “active”.

Regarding `Cn1cc(N2C[C@@H]3CN(CCO)C[C@@H]3C2=O)cn1`, the cytotoxicity call is “inactive”.

Consider `CCCCCCCCCc1ccc(O)cc1`, for which the cytotoxicity call is “active”.

For the compound `N#Cc1cnccn1`, the cytotoxicity call was “inactive”.

For the compound `C[C@@H]1CC[C@@]2(OC1)O[C@H]1C[C@H]3[C@@H]4CC=C5C[C@@H](O[C@@H]6O[C@H](CO)[C@@H](O[C@@H]7O[C@@H](C)[C@H](O)[C@@H](O)[C@H]7O)[C@H](O)[C@H]6O[C@@H]6O[C@@H](C)[C@H](O)[C@@H](O)[C@H]6O)CC[C@]5(C)[C@H]4CC[C@]3(C)[C@H]1[C@@H]2C`, the cytotoxicity call is “active”.

Take `Cl.NCC(=O)c1ccccc1`: the cytotoxicity call is “inactive”.

Consider `C[C@@H]1CN([C@H](C)CO)C(=O)CCCn2nncc2CO[C@@H]1CN(C)C(=O)Oc1cccc2ccccc12`, for which the cytotoxicity call was “inactive”.

As for `O=c1[nH]oc2c1CCNC2`, the cytotoxicity call is “inactive”.

Take `CN1CC[C@]2(CCCO2)C1`: the cytotoxicity call was “inactive”.

Regarding `O=C(O)C[C@@H]1CC[C@H]2NC[C@H](O)COC[C@@H]2O1`, the cytotoxicity call was “inactive”.

As to `COc1ccc(C(=O)N2CCCC2=O)cc1`, the cytotoxicity call is “inactive”.

As to `NC[C@@H]1CCCN2CCCC[C@H]12`, the cytotoxicity call is “inactive”.

`COC(=O)C[C@H]1CC[C@@H]2NC[C@H](O)COC[C@H]2O1`: the cytotoxicity call was “inactive”.

`CN(C)C(=O)Oc1ccc[n+](C)c1`: the cytotoxicity call is “inactive”.

`COC(=O)C(c1ccccc1)C1CCCCN1.Cl` (stereo not drawn): the cytotoxicity call is “inactive”.

With `CC(=O)OC1C2CCC3C(C)(O)C4CC(O)C(C)(C)C4(O)C(O)CC13CC2(C)O` (stereo not drawn), the cytotoxicity call was “inactive”.
